# Reference: patent publication US20250032643A1, “SYNTHETIC RECEPTORS” (UCL BUSINESS LTD, priority 2021, published 2025)
# System: Kir3.1 and Kir3.2 G-protein coupled inward rectifying potassium channels
# Assay: Electrophysiology GIRK assay, basal activity without agonist application
# Assay type: cell-based
# Details: FIG. 21C; in comparison to GFP-only transfection, p=0.008
# Excerpt: FIG. 21. Electrophysiology-based screen of hM4D (Gi) activation.
molecule,measurement,value
Y113C+A203G+S85V+Y416F+V120I: modified human M4 muscarinic receptor (GRANPA) with these substitutions (protein) MANFTPVNGSSGNQSVRLVTSSSHNRYETVEMVFIATVTGSLSLVTVVGNILVMLSIKVNRQLQTVNNYFLFSLACADLIIGAFVMNLYTVYIIKGYWPLGAVVCDLWLALDCVVSNASIMNLLIISFDRYFCVTKPLTYPARRTTKMAGLMIAAAWVLSFVLWAPAILFWQFVVGKRTVPDNQCFIQFLSNPAVTFGTAIAGFYLPVVIMTVLYIHISLASRSRVHKHRPEGPKEKKAKTLAFLKSPLMKQSVKKPPPGEAAREELRNGKLEEAPPPALPPPPRPVADKDTSNESSSGSATQNTKERPATELSTTEATTPAMPAPPLQPRALNPASRWSKIQIVTKQTGNECVTAIEIVPATPAGMRPAANVARKFASIARNQVRKKRQMAARERKVTRTIFAILLAFILTWTPFNVMVLVNTFCQSCIPDTVWSIGYWLCYVNSTINPACYALCNATFKKTFRHLLLCQYRNIGTAR,basal activity without agonist application,significant basal activity
